A short description of assay [1]: qHTS Assay for Lipid Storage Modulators (AID 1519). The conditions noted are these: Drosophila S3 cells, BODIPY lipid droplet/cell ratio, laser cytometry, cells loaded with oleic acid. The procedure, abridged:
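Cells seeded at 5,000 per well were treated with compounds over a concentration series and loaded with oleic acid (400 uM, as added). Lipid droplet fluorescence (488 nm excitation, 500-530 nm channel) was read by laser-scanning cytometry and normalized to 20 uM Triacsin C.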

Assay [2] can be described thus: qHTS drug screen for cell cycle checkpoint inhibitors in PARPi-resistant BRCA-mutant ovarian cancer cell lines. (AID 1963452). The conditions noted are these: PEO1/OlaR viability, CellTiter-Glo luminescence, 96 h. A digest of the protocol:
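PEO1, PEO4 and PEO1/OlaR ovarian cancer cells, 600 per well, exposed 96 h at 37C to a dilution series. Viability read by CellTiter-Glo luminescence, normalized to DMSO and empty wells; activity summarized as Z-AUC.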

Assay [3] can be described thus: qHTS for identification of novel therapeutic agents for treatment of microphthalmiaassociated transcription factor (MiT) renal cell carcinoma (RCC) (AID 1963991). The conditions noted are these: CellTiter-Glo, 48 h; for z-score: stronger effect = lower value. A digest of the protocol:
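Three TFE3-fusion RCC lines (UOK109, UOK124, UOK145), 500 cells/well in complete medium, were treated with MIPE 4.0 compounds for 48 hours at 37 C. Viability was by CellTiter-Glo luminescence, normalized to DMSO (100%) and empty wells (0%); curves fitted over 11 concentrations.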

Assay [4] can be described thus: qHTS Assay for Modulators of Human Peripheral Myelin Protein 22 (PMP22) Expression/Activity (AID 1967). The conditions noted are these: Cell-based PMP22 reporter, dual-color luciferase ratio. A digest of the protocol: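 Engineered MSC80 cells, Pmp22-promoter green and EF-alpha red luciferase reporters; 24h compound treatment at 37 °C. Concentration-response fits on green, red and ratio signals, each overlap-corrected, with %Activity normalized to untreated wells.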

Assay [5] can be described thus: qHTS Validation Assay to Find Inhibitors of Chronic Active B-Cell Receptor Signaling (AID 485345). The following applies: ABC-DLBCL cells, chronic BCR signaling reporter; measured here: CBR control luciferase (viability counter). A digest of the protocol: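 Read-out: ratio of filter-corrected green (IkappaBalpha fusion) to red (native) luciferase signal in doxycycline-induced TMD8 cells after 4 h at 37C. Titration spanned 46 uM–3 nM; Data were normalised to basal cells and 10 uM MG-132 wells.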

Assay [6] is described as follows: qHTS Assay for Inhibitors of PDE-IV (AID 607).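 Further: parental cells stimulated with forskolin 10 µM plus RO 20-1724 100 µM.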 The following applies: HEK293 ACTOne CNG channel cells, membrane potential fluorescence; measured here: parental cell counter-screen. The procedure, abridged:
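HEK293 ACTOne cells with CNG channel (1000/well), endogenous PDE4; membrane potential dye, compounds up to 22.9 uM final. Fluorescence Ex 535/Em 590; RO 20-1724 (100 uM final) as reference.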

Assay [7] can be described thus: Nrf2 qHTS screen for inhibitors: Validation (AID 493153). The conditions noted are these: A549 ARE-Fluc reporter, 18-24 h; AC50: CellTiter-Fluor fluorescence read, measured here: cytotoxicity CellTiter-Fluor AC50; viability change: measured here: cytotoxicity max response. A digest of the protocol:
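A549 cells carrying ARE-firefly luciferase reporter, 5000 cells/well in 5% FBS OPTI-MEM, treated with compound over a concentration series for 18-24 h at 37 C. Luciferase luminescence gave Nrf2 activity; CellTiter-Fluor fluorescence gave viability.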

[8] abbreviates: measured here: cell count channel max response.
The mark [9] stands for this setting: measured here: cell number channel AC50.
The mark [10] stands for this setting: measured here: lipid (BODIPY) channel AC50.
Setting [11] is: measured here: lipid channel max response.
The mark [12] stands for this setting: TFE3-RCC UOK109 viability, measured here: UOK109 Z-AUC.
Where [13] appears, read: TFE3-RCC viability, measured here: UOK124 Z-AUC.
Setting [14] is: TFE3-RCC viability, measured here: UOK145 Z-AUC.
Where [15] appears, read: TFE3-RCC viability, measured here: UOK145 cell viability.
Setting [16] is: measured here: red reporter channel AC50, EF-alpha promoter control reporter in MSC80 mouse Schwann cells.
Where [17] appears, read: TFE3-RCC viability, measured here: UOK124 cell viability.
Setting [18] is: measured here: green reporter channel AC50, mouse Pmp22 promoter in mouse Schwann cells.

Several values for one entry are separate records, joined by “and”; a condition that tells them apart may be missing. Equal entries are not always repeated. This is one part of the list. These are further read-outs of the screen, such as a control signal, another cell line or another target. No call is given for them. For some of these results: Most of these compounds were active or inconclusive in the main read-out, so they are no random draw. For some of these results: Words in brackets tell the shape of the fitted curve; partial curves, single points and poor fits give uncertain potencies.
Tags describe the fitted curve by direction and shape.

As for `Cc1cccc(N(C)C(=S)Oc2ccc3ccccc3c2)c1`, the max response in assay [1] (setting [8]) was 37.6%; in assay [1] (setting [11]) it was 60.6%. Besides, the AC50 in assay [1] (setting [9]) was 28.2 µM [rising, partial curve, poor fit]; in assay [1] (setting [10]), 31.6 µM [rising, single point]; in assay [2] (measured here: PEO1 parental viability), 21.9 µM [falling, single point]; in assay [3] (setting [15]), 37.2 µM [falling, partial curve, poor fit]. In addition, the results for the z-score in assay [3] (setting [12]), in assay [3] (setting [13]) and in assay [3] (setting [14]) were 0.192, 0.64 and 2.18, respectively.
For the compound `COc1ccccc1OCC(O)CN1CCN(CC(=O)Nc2c(C)cccc2C)CC1` (centres undefined), the max response in assay [1] (setting [8]) was 44.2%; in assay [1] (setting [11]) it was 49.6%. For the same compound, the AC50 in assay [1] (setting [9]) was 44.7 µM [rising, partial curve, poor fit]; in assay [1] (setting [10]) it was 39.8 µM [rising, partial curve, poor fit]; in assay [4] (setting [16]), 75.7 µM [falling, partial curve]; in assay [5], 16.4 µM [rising, partial curve]; in assay [2] (measured here: PEO4 viability), 0.049 µM [rising, full curve, poor fit].
As to `O=c1c(O)c(-c2ccc(O)c(O)c2)oc2cc(O)ccc12`, the max response in assay [1] (setting [8]) was -36.9%; in assay [1] (setting [11]), -32.8%. Moreover, the AC50 in assay [1] (setting [9]) is 31.6 µM [falling, single point]; in assay [1] (setting [10]), 39.8 µM [falling, single point]; in assay [3] (setting [17]) it was 29.6 µM [falling, single point]; in assay [3] (setting [15]) it was 20.9 µM [falling, single point]. Also, the z-score was found to be 0.239 in assay [3] (setting [12]), 0.438 in assay [3] (setting [13]) and 0.236 in assay [3] (setting [14]).
In the case of `CCOC(=O)C1=C(C)NC(=S)NC1c1cccc(O)c1` (centres undefined), the max response in assay [1] (setting [8]) came out at 89%; in assay [1] (setting [11]), 115%. Moreover, the AC50 is 12.6 µM [rising, partial curve] in assay [1] (setting [9]); 15.8 µM [rising, partial curve] in assay [1] (setting [10]); 0.0418 µM [falling, full curve] in assay [3] (setting [17]); 0.187 µM [falling, full curve] in assay [3] (setting [15]). Moreover, the z-score in assay [3] (setting [12]) was -0.619; in assay [3] (setting [13]), -0.0172; in assay [3] (setting [14]), -0.183.
Regarding `Cc1cc2cc3c(C)cc(=O)oc3c(C)c2o1`, the max response in assay [1] (setting [8]) was found to be 36.1%; in assay [1] (setting [11]), 69.6%. Moreover, the AC50 in assay [1] (setting [9]) was 1.41 µM [rising, full curve]; in assay [1] (setting [10]), 7.08 µM [rising, partial curve]; in assay [3] (setting [15]), 0.0148 µM [rising, full curve]. The figures for the z-score in assay [3] (setting [12]), in assay [3] (setting [13]) and in assay [3] (setting [14]) were -0.0339, 0.447 and -1.54, respectively.
Regarding `Nc1nc2ccc(OC(F)(F)F)cc2s1`, the max response is 111% in assay [1] (setting [8]) and 150% in assay [1] (setting [11]). Further, the concentration at half-maximal activity (AC50) was 12.6 µM [rising, partial curve, poor fit] in assay [1] (setting [9]); 14.1 µM [rising, partial curve, poor fit] in assay [1] (setting [10]); 47.8 µM [falling, partial curve] in assay [4] (setting [16]); 27.5 µM [falling, single point] in assay [2] (measured here: PEO4 viability). The z-score in assay [3] (setting [12]) was determined as 0.498; in assay [3] (setting [13]) it was 0.539; in assay [3] (setting [14]), 0.00644.
As for `COCCCCC(=NOCCN)c1ccc(C(F)(F)F)cc1`, the max response stood at 85.2% in assay [1] (setting [8]) and 112% in assay [1] (setting [11]). Further, the AC50 in assay [1] (setting [9]) was 12.6 µM [rising, partial curve]; in assay [1] (setting [10]) it was 12.6 µM [rising, partial curve]; in assay [3] (setting [17]), 14.8 µM [falling, partial curve]; in assay [3] (setting [15]), 20.9 µM [falling, partial curve, poor fit]. Further, the z-score in assay [3] (setting [12]) was -0.235; in assay [3] (setting [13]), -0.164; in assay [3] (setting [14]), -0.321.
For `NCCCCCCNS(=O)(=O)c1cccc2c(Cl)cccc12`, the max response in assay [1] (setting [8]) was 71.7% and 28.3%; in assay [1] (setting [11]) it was 86.5% and 27.9%. The AC50 in assay [1] (setting [9]) is 35.5 µM [rising, partial curve, poor fit]; in assay [1] (setting [10]), 35.5 µM [rising, partial curve, poor fit]; in assay [4] (setting [18]), 53.6 µM [falling, partial curve]; in assay [4] (setting [16]), 67.5 µM [falling, partial curve].
As to `COc1ccccc1N1CCN(CCCNc2cc(=O)n(C)c(=O)n2C)CC1`, the max response is 26.5% and 68.4% in assay [1] (setting [8]); 46.6% and 68.8% in assay [1] (setting [11]). In addition, the AC50 in assay [1] (setting [9]) was 31.6 µM [rising, partial curve, poor fit]; in assay [1] (setting [10]), 31.6 µM [rising, single point] and 15.8 µM [rising, partial curve, poor fit]; in assay [4] (setting [16]) it was 84.9 µM [falling, single point].
For the compound `O=C1c2c(O)cc(O)cc2OC(c2ccc(O)c(O)c2)C1O` (centres undefined), the max response was 33.2% in assay [1] (setting [8]) and 60.3% in assay [1] (setting [11]). Besides, the half-maximal activity concentration (AC50) in assay [1] (setting [9]) is 39.8 µM [rising, single point]; in assay [1] (setting [10]), 20 µM [rising, partial curve, poor fit]; in assay [4] (setting [16]), 75.7 µM [falling, single point].
As for `Cc1cccc(C#Cc2ccccc2)n1`, the concentration at half-maximal activity (AC50) was 0.0251 µM [rising, full curve, poor fit] in assay [6]; 6.31 µM [rising, partial curve] in assay [1] (setting [9]); 6.31 µM [rising, partial curve] in assay [1] (setting [10]); 18.7 µM [falling, partial curve, poor fit] in assay [3] (setting [17]). Besides, the figures for the max response in assay [1] (setting [8]) and in assay [1] (setting [11]) were 126% and 168%, respectively. Further, the z-score in assay [3] (setting [12]) is 0.894; in assay [3] (setting [13]), 0.629; in assay [3] (setting [14]), 0.607.
As for `COC(=O)c1c(-c2cc(OC)c(OC)c(OC)c2)c2ccnc(OCc3ncccn3)c2c(=O)n1Cc1ccnc(C)c1`, the max response in assay [1] (setting [8]) is 85.1% and 51.2%; in assay [1] (setting [11]), 109% and 52.4%. Further, the half-maximal activity concentration (AC50) in assay [1] (setting [9]) was 25.1 µM [rising, partial curve, poor fit]; in assay [1] (setting [10]), 28.2 µM [rising, partial curve]; in assay [4] (setting [16]), 84.9 µM [falling, single point].
As to `CC1(C)NC(=O)N(c2ccc([N+](=O)[O-])c(C(F)(F)F)c2)C1=O`, the max response is -29% and 66.8% in assay [1] (setting [8]); -35.4% and 66.1% in assay [1] (setting [11]). In addition, the AC50 in assay [1] (setting [9]) was 12.6 µM [rising, full curve]; in assay [1] (setting [10]) it was 14.1 µM [falling, single point] and 10 µM [rising, partial curve, poor fit]. Also, the viability change in assay [7] turned out to be 2.86%. For the same compound, the z-score in assay [3] (setting [12]) was 1.29; in assay [3] (setting [13]), -0.0654; in assay [3] (setting [14]), 0.00214.
For `CC1=C(/C=C/C(C)=C/C=C/C(C)=C\C(=O)O)C(C)(C)CCC1`, the max response in assay [1] (setting [8]) stood at 49.4%; in assay [1] (setting [11]) it was 52.8%. In addition, the AC50 in assay [1] (setting [9]) is 39.8 µM [rising, single point]; in assay [1] (setting [10]), 39.8 µM [rising, partial curve, poor fit]; in assay [4] (setting [16]), 2.39 µM [falling, full curve, poor fit].
For the compound `COC(=O)c1c(C)[nH]c(C)c1C(=O)c1ccccc1Cc1ccccc1`, the max response was 83% and 7.24% in assay [1] (setting [8]); 102% and 4.13% in assay [1] (setting [11]). Further, the AC50 is 2 µM [rising, full curve] in assay [1] (setting [9]); 1.58 µM [rising, full curve] in assay [1] (setting [10]); 84.9 µM [falling, single point] in assay [4] (setting [18]); 84.9 µM [falling, single point] in assay [4] (setting [16]).

Values taken from PubChem BioAssay (NCATS).
